# According to PubChem BioAssay AID1345082 (National Center for Advancing Translational Sciences (NCATS), 2018):
# Values joined by “and” are separate entries in the source; they are usually repeats but may differ in a detail not shown here. Equal values may be shown once. The campaign covered roughly 94,000 compounds. About 4,000 (4.3%) were called active. Inconclusive results, whose numbers are uncertain, are shown with a selection of clear calls. Calls come from the whole dose curve; as a rule, active = well fitted inhibition curve with a large enough effect; inconclusive = small, poorly fitted or top-dose-only effect; inactive = no such curve, though single readings can be large or run the other way. Potencies of inconclusive entries are doubtful fits and often do not repeat.
# Assay: Cytotoxic Profiling in NIH 3T3 Cell Line of Diverse Libraries Using Quantitative High-Throughput Screening; note: nearly all actives have a fitted effect of over 55% in size
# Conditions: NIH 3T3 viability, CellTiter-Glo ATP luminescence, 48-72 h; series mostly up to 96.7 µM
# Outline: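 First NIH 3T3 cells are plated at 400 cells/well; next compound is pinned in; then plates incubate 48 or 72 hr at 37 °C; finally CellTiter-Glo is added and luminescence read after 10 min.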
# Potency is the fitted concentration of half-maximal effect; tags give direction and shape of the fitted curve.
row,SMILES,Potency
1,O=C(NCc1cccs1)c1cc2c(s1)CCN(C(=O)c1ccc(F)cc1)C2,"inconclusive: 17.8 µM [inhibitor, full curve, poor fit]"
2,O=C(c1ccco1)N1CCC(N2C(=O)[C@H]3CN(Cc4ccccc4)C[C@H]3C2=O)CC1,inactive
3,CN(C)c1cccc(C(=O)N2CCC3(CC2)NC(=O)N(c2ccccc2)N3)c1,"inconclusive: 35.5 µM [inhibitor, partial curve]"
4,CCN(Cc1ccncc1)C(=O)c1cc(-c2cnc(C)nc2)nc2cc(F)ccc12,"inconclusive: 89.1 µM [inhibitor, single point]"
5,COc1ccc(-c2noc(CC3CCN(C(=O)c4cc(F)ccc4F)CC3)n2)cc1,"inconclusive: 12.6 µM [inhibitor, partial curve, poor fit]"
6,CC(C)c1nc2c(c(-c3ccc(O)cc3)n1)CCN(C(=O)C1CC1)CC2,inactive
7,O=C(CCn1ccn2nc3c(c2c1=O)CCCC3)N1CCN(c2ccc(Cl)cc2)CC1,"inconclusive: 28.2 µM [inhibitor, partial curve, poor fit]"
8,CCC(=O)N1Cc2ccccc2CC2(CCCN(CC3CCNC3)C2)C1 (stereo unspecified),"inconclusive: 79.4 µM [inhibitor, single point]"
9,Cn1ncc2c(C(=O)Nc3cccc(Cl)c3)cc(-c3ccc(Cl)nc3)nc21,"inconclusive: 89.1 µM [inhibitor, partial curve, poor fit]"
10,NC(=O)Cc1c[nH]c2ncc(-c3ccccc3Oc3ccccc3)cc12,"inconclusive: 100 µM [inhibitor, partial curve, poor fit]"
11,CCCCCNC(=O)CC(c1cccc(OC)c1OC)c1c[nH]c2c(CC)cccc12 (stereo unspecified),"inconclusive: 35.5 µM [inhibitor, partial curve]"
12,Cc1nc2c(c(-c3ccc(Cl)cc3)n1)CN([S+](=O)([O-])c1ccsc1)CC2,active: 22.4 µM
13,CC(C)C(=O)N1CCc2c(n(Cc3ccccc3)n(-c3ccccc3)c2=O)C1,active: 22.4 µM
14,Cc1ccc(-c2ncc(C(=O)Nc3cccc(Br)c3)c(-c3ccncc3)n2)cc1,"inconclusive: 15.8 µM [inhibitor, full curve, poor fit]"
15,CCCCn1c(=O)c(C(=O)NC2CC2)nc2cccnc21,inactive
16,COc1cc(NC(=O)Nc2cccc(-c3ccc(N4CCOCC4)nn3)c2)cc(OC)c1,active: 31.6 µM
17,Cc1ccc(CN(C)C(=O)c2coc(COc3ccc(F)cc3Cl)n2)cc1,"inconclusive: 50.1 µM [inhibitor, partial curve, poor fit]"
18,O=C(Cc1ccc(F)cc1)N1CCC[C@H]1c1nc(-c2ccc(F)cc2)no1,"inconclusive: 44.7 µM [inhibitor, partial curve, poor fit]"
19,O=C(c1ccc(Cl)s1)N1CCC(c2nc(-c3ccccc3)no2)C1 (stereo unspecified),"inconclusive: 50.1 µM [inhibitor, partial curve, poor fit]"
20,CCN(CC)C(=O)C1=C(C)N=C2SC=C(CC(=O)NCc3ccccc3)N2C1c1ccccc1F (stereo unspecified),inactive
21,O=c1c2nc(-c3ccccc3)ccc2ncn1-c1ccccc1,"inconclusive: 100 µM [inhibitor, partial curve, poor fit]"

row,SMILES,Potency
1,COc1ccc(C2(C(=O)N3CCCN(C)c4ccccc43)CC2)cc1,"inconclusive: 39.8 µM [inhibitor, partial curve, poor fit]"
2,O=C1NCc2ccccc2CC12CCN(Cc1ccnc3ccccc13)C2 (stereo unspecified),"inconclusive: 8.91 µM [inhibitor, partial curve, poor fit]"
3,Cc1ccc(SCc2ccc(-c3nc(C4CCOC4)no3)o2)cc1 (stereo unspecified),"inconclusive: 50.1 µM [inhibitor, partial curve, poor fit]"
4,CCCCn1c(=O)c(C(=O)NCC2CCCCC2)nc2cccnc21,"inconclusive: 50.1 µM [inhibitor, partial curve, poor fit]"
5,Cn1nccc1C(=O)N1CCC(N2CC3(CCCCC3)C2c2ccncc2)CC1 (stereo unspecified),inactive
6,CC(C)CCNC(=O)c1c(OCC2CC2)cc(=O)n2c1CCOCC2,inactive
7,COc1cccc(CN2CCc3nc(C(=O)N4CCOCC4)oc3CC2)c1,"inconclusive: 89.1 µM [inhibitor, partial curve, poor fit]"
8,CCC(C)NC(=O)N1CC(Oc2ccc(-c3noc(C4CCOCC4)n3)cc2)C1 (stereo unspecified),"inconclusive: 7.08 µM [inhibitor, full curve]"
9,Cc1nc2c(OCC(=O)c3ccccc3)cccn2c(=O)c1-c1cc(C)n(-c2ccc(Cl)cc2)n1,"inconclusive: 44.7 µM [inhibitor, partial curve, poor fit]"
10,COc1ccc(CN2C=C(C(=O)OCc3nc(C4CCCCC4)no3)C(C)=NS2(=O)=O)cc1,"inconclusive: 14.1 µM [inhibitor, full curve]"
11,COc1ccc(CC(=O)N[C@H](C)c2onc(-c3cccnc3)c2C(=O)O)cc1,inactive
12,O=C(Cc1cccc(F)c1)N1CCC(c2n[nH]c(=O)n2Cc2ccc(F)cc2)CC1,"inconclusive: 56.2 µM [inhibitor, partial curve, poor fit]"
13,CCn1nccc1C(=O)N1CCCC2(C=Cc3ccccc3O2)CC1 (stereo unspecified),"inconclusive: 50.1 µM [inhibitor, partial curve, poor fit]"
14,Cc1ccc(-c2cc3c(=O)n(CCNC(=O)c4ccoc4)ccn3n2)cc1C,"inconclusive: 35.5 µM [inhibitor, partial curve]"
15,COc1ccc(C(=O)N2CCCCCCNC(=O)[C@@H]3C[C@@H](c4nc(C(C)C)no4)C[C@@H]32)cc1,"inconclusive: 79.4 µM [inhibitor, partial curve, poor fit]"
16,Cc1ccc2nccc(C(=O)N3CCn4nc(C(=O)N5CCCC5)cc4C3)c2c1,"inconclusive: 50.1 µM [inhibitor, partial curve, poor fit]"
17,CCO[C@H]1CN(C2CN(S(=O)(=O)c3ccc(C)cc3)C2)C[C@@H]1O,inactive
18,COc1ccc(NC(=O)C2CCCN(c3cnc4nc(C)c(C)nc4c3)C2)c(C)c1 (stereo unspecified),"inconclusive: 70.8 µM [inhibitor, single point]"
19,CN1CCN(c2ccc(-c3cc4c(ccn4C)c(C(=O)NCCc4ccccn4)n3)cc2)CC1,active: 20 µM
20,CC(=O)NCCCC(=O)N1Cc2ccccc2OC2(CCN([S+](C)(=O)[O-])CC2)C1,inactive
21,CC(=O)Nc1ccc(S(=O)(=O)N2C[C@@H]3C[C@H](C2)c2ccc(-c4ccccc4C)c(=O)n2C3)cc1,inactive

row,SMILES,Potency
1,O=C(Nc1ccc(F)cc1)C1CCCN(Cc2cccc(-c3cccs3)c2)C1 (stereo unspecified),"inconclusive: 39.8 µM [inhibitor, partial curve, poor fit] and inconclusive: 44.7 µM [inhibitor, partial curve, poor fit]"
2,CC(C)C(=O)N1Cc2ccccc2CC2(CCCN2C)C1 (stereo unspecified),inactive
3,CC1=C[C@@H](CNS(=O)(=O)c2ccc(C#N)cc2)[C@H](C(C)C)C[C@H]1Cc1nnc(-c2ccncc2)o1,"inconclusive: 17.8 µM [inhibitor, full curve, poor fit]"
4,COCC(=O)N(C1CCOCC1)C1CCN(S(=O)(=O)c2ccccc2)CC1,inactive
5,COc1cccc(C(O)c2nc(C(=O)Nc3nc(C)cs3)c(C)o2)c1 (stereo unspecified),"inconclusive: 89.1 µM [inhibitor, partial curve]"
6,O=[S+]1([O-])NCC2(CCCN(Cc3ccc(C(F)(F)F)cc3)C2)Oc2ncccc21 (stereo unspecified),"inconclusive: 11.2 µM [inhibitor, full curve, poor fit]"
7,N#Cc1cccc(C(=O)N2CCCOCCNC(=O)CC2)c1,"inconclusive: 35.5 µM [inhibitor, partial curve]"
8,O=C(Nc1cccs1)N1CCNc2cnc(Nc3cccc(F)c3)nc2C1,"inconclusive: 89.1 µM [inhibitor, partial curve]"
9,O=C(NCCc1ccc(Cl)cc1)C1CCN(c2nccc(Nc3ccccc3F)n2)CC1,"inconclusive: 22.4 µM [inhibitor, full curve]"
10,Cc1ccc2c(c1)N1C(=O)OC[C@@H]1CCN(C(=O)c1ccc(C(F)(F)F)cc1)C2,inactive
11,O=C(NCc1cccs1)c1nc(-c2ccccc2)c2ccccn12,"inconclusive: 56.2 µM [inhibitor, partial curve]"
12,Cc1ccc([S+](=O)([O-])NC2CCCN(c3ccc4nnc(-c5ccccc5)n4n3)C2)cc1 (stereo unspecified),"inconclusive: 2.82 µM [inhibitor, full curve, poor fit]"
13,COc1ccc(-c2onc(C)c2C(=O)NC2CCCc3ccccc32)cc1 (stereo unspecified),"inconclusive: 20 µM [inhibitor, full curve, poor fit]"
14,COc1ccc(F)cc1-c1ncc2c(n1)OCCN(c1cccc(C(F)(F)F)c1)C2=O,active: 35.5 µM
15,CC(C)C(=O)N1CCC(Oc2ccccc2)C1 (stereo unspecified),inactive
16,Cn1cc(CC(=O)N2CCCc3ncc(C(=O)NCc4ccc(F)cc4)cc32)c2ccccc21,"inconclusive: 50.1 µM [inhibitor, partial curve, poor fit]"
17,NCC(=O)N1CCCC2(Cc3ccccc3CN2C(=O)c2cccc(Cl)c2)C1 (stereo unspecified),"inconclusive: 70.8 µM [inhibitor, partial curve, poor fit]"
18,O=C(Nc1ccc(Cl)cc1)c1nc2c(o1)CCN(Cc1cc(F)ccc1F)CC2,"inconclusive: 56.2 µM [inhibitor, partial curve, poor fit]"
19,CN1C[C@H]2CNC[C@@]2(C(=O)NCc2ccccc2OCc2ccccc2)C1,"inconclusive: 50.1 µM [inhibitor, partial curve, poor fit]"
